Experimental data taken from the supplement of paper PMC4604168 (melanoma cell lines).
The list shows a part of the results. Single values are uncertain, as repeats are few or missing.

Legend:
Assay in all cases: cell count relative to DMSO control; melanoma cells; higher = more viable cells
Details in all cases: library dose: standard library concentration; 72 h
G361 = test system: G361
IPC-298 = test system: IPC-298
IST-MEL1 = test system: IST-MEL1
LB2518-MEL = test system: LB2518-MEL
LOXIMVI = test system: LOXIMVI
MEL-HO = test system: MEL-HO
MZ2-MEL = test system: MZ2-MEL
MeWo = test system: MeWo
RPMI7951 = test system: RPMI7951
RVH-421 = test system: RVH-421
SkMel28 = test system: SkMel28
SkMel2 = test system: SkMel2
SkMel30 = test system: SkMel30
SkMel5 = test system: SkMel5
UACC257 = test system: UACC257
UACC62 = test system: UACC62
WM115 = test system: WM115
WM1716 = test system: WM1716
WM1745 = test system: WM1745
WM3526 = test system: WM3526
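Note: cells treated in 1,536-well plates, then fixed and DAPI-stained, with nuclei counted from automated high-throughput microscope images.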

| SMILES | cell count (G361) [%] | cell count (IPC-298) [%] | cell count (IST-MEL1) [%] | cell count (LB2518-MEL) [%] | cell count (LOXIMVI) [%] | cell count (MEL-HO) [%] | cell count (MZ2-MEL) [%] | cell count (MeWo) [%] | cell count (RPMI7951) [%] | cell count (RVH-421) [%] | cell count (SkMel28) [%] | cell count (SkMel2) [%] | cell count (SkMel30) [%] | cell count (SkMel5) [%] | cell count (UACC257) [%] | cell count (UACC62) [%] | cell count (WM115) [%] | cell count (WM1716) [%] | cell count (WM1745) [%] | cell count (WM3526) [%] |
| --- | --- | --- | --- | --- | --- | --- | --- | --- | --- | --- | --- | --- | --- | --- | --- | --- | --- | --- | --- | --- |
| CC(=O)c1c(C)c2cnc(Nc3ccc(N4CCNCC4)cn3)nc2n(C2CCCC2)c1=O [palbociclib] + O=C(CCCCCCC(=O)Nc1ccccc1)NO [vorinostat] (first compound 0.2 µM, partner dose 0.4 µM) | 60.3 | 76.9 | 70.6 | 58.1 | 62.9 | 73.3 | 69.6 | 40.2 | 58.2 | 67.1 | 35 | 41.8 | 58.6 | 51.5 | 75.5 | 67.8 | 40.5 | 40.2 | 51.4 | 48.3 |
| CC(=O)c1c(C)c2cnc(Nc3ccc(N4CCNCC4)cn3)nc2n(C2CCCC2)c1=O [palbociclib] + OCc1c[nH]c2ccccc12 [Indole-3-carbinol] (first compound 0.2 µM, partner dose 4 µM) | 90.1 | 78.2 | 101 | 93.1 | 85.9 | 99.6 | 84.1 | 92.9 | 77.4 | 81.5 | 61.5 | 90.8 | 101 | 85.8 | 76.6 | 70.8 | 81 | 46.6 | 87.7 | 89.8 |
| CC(=O)O[C@@]12CO[C@@H]1C[C@H](O)[C@@]1(C)C(=O)[C@H](O)C3=C(C)[C@@H](OC(=O)[C@H](O)[C@@H](NC(=O)OC(C)(C)C)c4ccccc4)C[C@@](O)([C@@H](OC(=O)c4ccccc4)[C@H]21)C3(C)C [Docetaxel] + CN1CCN(c2ccc3nc(-c4c(N)c5c(F)cccc5[nH]c4=O)[nH]c3c2)CC1 [Dovitinib] (first compound 0.0005 µM, partner dose 0.5 µM) | 14.8 | 36.4 | 42.3 | 31.2 | 71.8 | 33.1 | 29.3 | 20.1 | 14.2 | 52.2 | 28.2 | 20.1 | 43.4 | 31.2 | 62.4 | 39.2 | 28.2 | 33.7 | 36.3 | 28.9 |
| CO[C@H]1C[C@@H]2CC[C@@H](C)[C@@](O)(O2)C(=O)C(=O)N2CCCC[C@H]2C(=O)O[C@H]([C@H](C)C[C@@H]2CC[C@@H](OCCO)[C@H](OC)C2)CC(=O)[C@H](C)/C=C(\C)[C@@H](O)[C@@H](OC)C(=O)[C@H](C)C[C@H](C)/C=C/C=C/C=C/1C [everolimus] + C=CCn1c(=O)c2cnc(Nc3ccc(N4CCN(C)CC4)cc3)nc2n1-c1cccc(C(C)(C)O)n1 [MK1775] (first compound 0.1 µM, partner dose 0.1 µM) | 52.7 | 58.8 | 77.7 | 49.9 | 60.4 | 64.5 | 80.7 | 55 | 75.9 | 87.7 | 26.1 | 57.8 | 50.4 | 51 | 76.8 | 71.6 | 42.3 | 68.2 | 70.4 | 62.6 |
| Nc1nc(F)nc2c1ncn2[C@@H]1O[C@H](CO)[C@@H](O)[C@@H]1O [fludarabine] + Cc1cc(N2CCOCC2)cc2[nH]c(-c3c(NC[C@@H](O)c4cccc(Cl)c4)cc[nH]c3=O)nc12 [BMS536924] (first compound 1 µM, partner dose 1 µM) | 73 | 83.5 | 70.3 | 80.8 | 105 | 77.5 | 115 | 81 | 93.2 | 114 | 0.892 | 1.98 | 13.9 | 34.7 | 39.9 | 70.5 | 89.3 | 93.9 | 55.3 | 20.7 |
| CO[C@H]1C[C@@H]2CC[C@@H](C)[C@@](O)(O2)C(=O)C(=O)N2CCCC[C@H]2C(=O)O[C@H]([C@H](C)C[C@@H]2CC[C@@H](OCCO)[C@H](OC)C2)CC(=O)[C@H](C)/C=C(\C)[C@@H](O)[C@@H](OC)C(=O)[C@H](C)C[C@H](C)/C=C/C=C/C=C/1C [everolimus] + Nc1ncn([C@H]2C[C@H](O)[C@@H](CO)O2)c(=O)n1 [decitabine] (first compound 0.1 µM, partner dose 0.5 µM) | 54.5 | 63.3 | 95.9 | 78.3 | 74.7 | 77.8 | 89.9 | 68.4 | 72.2 | 112 | 48.9 | 77.8 | 60.8 | 48.3 | 84.8 | 66 | 82.2 | 71 | 100 | 71.9 |
| Nc1nc(F)nc2c1ncn2[C@@H]1O[C@H](CO)[C@@H](O)[C@@H]1O [fludarabine] + COc1ccc(Cl)c(Nc2nc3ccccc3nc2NS(=O)(=O)c2cccc(NC(=O)C(C)(C)N)c2)c1 [XL147] (first compound 1 µM, partner dose 4 µM) | 71.8 | 57.3 | 64.7 | 75.8 | 126 | 63.3 | 82.6 | 83.4 | 75.6 | 81.2 | 5.85 | 3.1 | 23.3 | 21.5 | 41 | 62.7 | 107 | 84 | 108 | 24.9 |
| CC(=O)O[C@@]12CO[C@@H]1C[C@H](O)[C@@]1(C)C(=O)[C@H](O)C3=C(C)[C@@H](OC(=O)[C@H](O)[C@@H](NC(=O)OC(C)(C)C)c4ccccc4)C[C@@](O)([C@@H](OC(=O)c4ccccc4)[C@H]21)C3(C)C [Docetaxel] + CS(=O)(=O)CCNCc1ccc(-c2ccc3ncnc(Nc4ccc(OCc5cccc(F)c5)c(Cl)c4)c3c2)o1 [lapatinib] (first compound 0.0005 µM, partner dose 4 µM) | 8.65 | 33.4 | 46.3 | 32.5 | 77.9 | 46 | 40.7 | 33.5 | 21.6 | 82.8 | 22 | 24.4 | 50.5 | 31.5 | 64.1 | 30.4 | 37.7 | 35.4 | 28.1 | 44.6 |
| Nc1ncn([C@H]2C[C@H](O)[C@@H](CO)O2)c(=O)n1 [decitabine] + O=C(Nc1cccc(Cl)c1)Nc1ncc(CCNc2ncnc3ccsc23)s1 [SNS314] (first compound 0.5 µM, partner dose 0.004 µM) | 62.3 | 51.3 | 45.3 | 68.8 | 74.1 | 66.8 | 69.1 | 66.3 | 64.3 | 76 | 56.1 | 77.5 | 83.7 | 73.1 | 65.1 | 90 | 33.9 | 43.1 | 72.5 | 76.2 |
| CC(=O)O[C@@]12CO[C@@H]1C[C@H](O)[C@@]1(C)C(=O)[C@H](O)C3=C(C)[C@@H](OC(=O)[C@H](O)[C@@H](NC(=O)OC(C)(C)C)c4ccccc4)C[C@@](O)([C@@H](OC(=O)c4ccccc4)[C@H]21)C3(C)C [Docetaxel] + CC(C)(C)c1cnc(CSc2cnc(NC(=O)C3CCNCC3)s2)o1 [SNS-032] (first compound 0.0005 µM, partner dose 0.05 µM) | 15.8 | 56 | 40.6 | 41 | 51.7 | 43.2 | 49.8 | 22 | 17.7 | 82.7 | 27.9 | 15.3 | 80.6 | 25 | 53.4 | 50.3 | 42.8 | 37.5 | 39.3 | 34.2 |
| CO[C@H]1C[C@@H]2CC[C@@H](C)[C@@](O)(O2)C(=O)C(=O)N2CCCC[C@H]2C(=O)O[C@H]([C@H](C)C[C@@H]2CC[C@@H](OCCO)[C@H](OC)C2)CC(=O)[C@H](C)/C=C(\C)[C@@H](O)[C@@H](OC)C(=O)[C@H](C)C[C@H](C)/C=C/C=C/C=C/1C [everolimus] + COc1cc(Nc2ncc(F)c(Nc3ccc4c(n3)NC(=O)C(C)(C)O4)n2)cc(OC)c1OC [Tamatinib] (first compound 0.1 µM, partner dose 2 µM) | 72.2 | 78.1 | 56.5 | 68.4 | 28.7 | 73.2 | 59.8 | 60.5 | 22.6 | 77.8 | 80.4 | 71.6 | 92.1 | 48.4 | 78.4 | 67.3 | 81.8 | 78.3 | 40.5 | 65.2 |
| Nc1ncn([C@H]2C[C@H](O)[C@@H](CO)O2)c(=O)n1 [decitabine] + Nc1cccc2c1CN(C1CCC(=O)NC1=O)C2=O [lenalidomide] (first compound 0.5 µM, partner dose 5 µM) | 90.2 | 45.1 | 84.1 | 80.5 | 93.3 | 78.6 | 69.7 | 79.6 | 79 | 81.5 | 76.5 | 87.2 | 111 | 82.5 | 121 | 57 | 65.7 | 78.2 | 58.8 | 102 |
| Nc1ccn([C@@H]2O[C@H](CO)[C@@H](O)C2(F)F)c(=O)n1 [gemcitabine] + COc1ccc(Cl)c(Nc2nc3ccccc3nc2NS(=O)(=O)c2cccc(NC(=O)C(C)(C)N)c2)c1 [XL147] (first compound 0.002 µM, partner dose 4 µM) | 60.5 | 43.1 | 47.9 | 64.3 | 128 | 57.4 | 73.2 | 38.9 | 73.4 | 53.8 | 107 | 120 | 120 | 89.8 | 101 | 96.7 | 75.5 | 74.4 | 61 | 107 |
